Reference: the RNAGym collection of RNA variant scans (doi:10.1093/nar/gkz1192)
The source gives no read counts; variants with many changes may rest on few reads.

B1: CPEB3 Ribozyme (parent)
chain: UAACAGGGGGCCACAGCAGAAGCGUUCACGUCGCAGCCCCUGUCAGAUUCUGGUGAAUCUGCGAAUUCUGCUGUAUAUCUC

Variants of: B1
Assay: self-cleavage, relative activity (ratio to wild type); higher = more cleavage; in vitro, sequencing
In short: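 Barcoded CPEB3 ribozyme mutants, produced by rounds of error-prone PCR, self-cleaved while being transcribed with T7 RNA polymerase for 5 hours at 37°C and during a subsequent 15 min DNase I step before EDTA was added. Sequencing of template-switched cDNA on Illumina gave cleaved and total reads, and DNA sequencing assigned barcodes to variants. Each variant's relative activity is its cleaved/total read fraction divided by the unmutated ribozyme's fraction, averaged across three batches. A variant needed a minimum of 5 reads.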

Which self-cleavage does the source give for UAACAGGGGGCCACAGCGGAAGCGUUCACGCCGCAGCCCCUGCCAGACUCUGGAGAACCUGCGAAUUCUGCUGUAUAUCUC here?
Its self-cleavage is 0.15.

With UAACAGGGGGCCACAGCGGAAGCGUUCACGCCGCAGCCCCCGUCAGAUUCUGGUGAGUCUGCGCAUCCUGCUGUAUAUCUC as the variant, how does the self-cleavage read?
Its self-cleavage is 0.07.

With UAACAGGGGGCCACAGCGGAAGCGUUCACGCCGCAGCCCCUGUCAGAUUCUGGUGAAUCUGGGAAUUCCGCUGUAUAACUC as the variant, how does the self-cleavage read?
Its self-cleavage is 0.07.

For UAACAGGGGGCCACAGCGGAAGCGUUCACGUCGCAGCCCCUGACAGAUUCUGGUGAAUCUGCGAAUUCUGCCGUAUAUCUC, which self-cleavage is on record?
The self-cleavage was 0.63.

Which self-cleavage does the source give for UAACAGGGGGCCACAGCGGAAGCGUUCACGUCGCAGCCCCCGUCGGAUUCUGGUGGAUCUGCGAAUUCUGCUGUAUACCUC here?
The self-cleavage was 0.31.

With UAACAGGGGGCCACAGCGGAAGCGUUCACGUCGCAGCCCCCGCCAGAUUCUGGUGAAUCUGCGGAUUCUGCUGUAUACCUC as the variant, how does the self-cleavage read?
Its self-cleavage is 0.3.

For UAACAGGGGGCCACAGCGGAAGCGUUCACGUCGCAGCCCCCGUCAGAUCCUGGUGAAUCUGCGGAUUCUGCUGUAUACCUC, which self-cleavage is on record?
The self-cleavage was 0.61.

With UAACAGGGGGCCACAGCGGAAGCGUUCACGUCGCAGCCCCGGUCAGAUUCUGGUGAAUCUGCGAAUUCGGCUGUAUAUCUC as the variant, how does the self-cleavage read?
Its self-cleavage is 0.31.

With UAACAGGGGGCCACAGCGGAAGCGUUCACGUCGCAGCCCCCGUCAGAUCCUGAUGAAUCUGCGAAUCCUGCUGAAUACCUC as the variant, how does the self-cleavage read?
Its self-cleavage is 0.3.

With UAACAGGGGGCCACAGCGGAAGCGUUCACGCCGUAGCCCCCGUCAGAUUCUGGUGAAUCUGCGAAUUCUGCUGUAUAUCUC as the variant, how does the self-cleavage read?
The self-cleavage was 0.18.

For UAACAGGGGGCCACAGCGGAAGCGUUCACGUCGCAGCCCCAGUCAGAUUCUGGUGAAUCAGCGAAUUCUGCUGUAUAUCUC, which self-cleavage is on record?
The self-cleavage was 0.28.

Which self-cleavage does the source give for UAACAGGGGGCCACAGCGGAAGCGUUCACGGCGCGGCCCCUGUCUGAUUCUGGUGAAUCUGCGAAUUCUGCUGUAUAUCUC here?
The self-cleavage was 0.79.

With UAACAGGGGGCCACAGCGGAAGCGUUCACGUCGCAGCCCCUGACAGAUUCUGGUGAAUCUGUGAAAUCUGCUGUAUAUCUC as the variant, how does the self-cleavage read?
The self-cleavage was 0.44.

For UAACAGGGGGCCACAGCGGAAGCGUUCACGUCGCAGCCCCUGACAGAUUCUGGUGAAUCUGCGAAUUCUGCCGUUUAUCCC, which self-cleavage is on record?
Its self-cleavage is 0.84.

For UAACAGGGGGCCACAGCGGAAGCGUUCACGUCGCAGCCCCAGUCAGAUUCUGGCGAAUCUGCGGAUUCUGCUGUAUACCUC, which self-cleavage is on record?
Its self-cleavage is 0.2.

With UAACAGGGGGCCACAGCGGAAGCGUUCACGUCGCAGCCCCAGUUAGAUUCUGGUGAAUCUGCGAGUUCUGCUGUAAAUCCC as the variant, how does the self-cleavage read?
Its self-cleavage is 0.08.

Which self-cleavage does the source give for UAACAGGGGGCCACAGCGGAAGCGUUCACGUCGCAGCCCCUGACAGAUUCUGGUGAAGCUGCGAAUUCCGCUGUAUAUCUC here?
Its self-cleavage is 0.15.

For UAACAGGGGGCCACAGCGGAAGCGUUCACGUCGCAGCCCCCGUCAGAUUCUGGUGUAUCUGUGAACUCUGCUGUAUAUCUC, which self-cleavage is on record?
The self-cleavage was 0.16.

Which self-cleavage does the source give for UAACAGGGGGCCACAGCGGAAGCGUUCACGUCGCAGCCCCAGUCAGAUUCUGGUGAAUCUGCGAAUACUGCUGUAUAUCUC here?
The self-cleavage was 0.38.

With UAACAGGGGGCCACAGCGGAAGCGUUCACGUCGCAGCCCCCGUCAGAUUCUGGUGAAUCUGCGAAUUCCGCUGUAUAUCUC as the variant, how does the self-cleavage read?
Its self-cleavage is 1.13.

For UAACAGGGGGCCACAGCGGAAGCGUUCACGUCGCAGCCCCUGACAGAUUCUCGUGAAUCUGCGAAUUCUGCUGUAUAUCUC, which self-cleavage is on record?
The self-cleavage was 0.88.

With UAACAGGGGGCCACAGCGGAAGCGUUCACGUCGCAGCCCCCGUCAGAUUCUGGUGAAUCCGCCAAUUCUGCUGUAUAUCUC as the variant, how does the self-cleavage read?
The self-cleavage was 0.17.

Which self-cleavage does the source give for UAACAGGGGGCCACAGCGGAAGCGUUCACGUCGCAGCCCCAGUCAGAUUCUGGUGAAUCUGCGAAUUCUACUGUAUAUCUC here?
The self-cleavage was 0.29.

Which self-cleavage does the source give for UAACAGGGGGCCACAGCGGAAGCGUUCACGUCGCAGCCCCCGUCAGAUUCUGGUGCAUCUGCGAACUAUGCAGUAUAUCUC here?
Its self-cleavage is 0.05.

With UAACAGGGGGCCACAGCGGAAGCGUUCACGUCGCAGCCCCUGACAGAUUCUGGUGAAUCUGCGAAUUCUGCUGUAUAUCAC as the variant, how does the self-cleavage read?
The self-cleavage was 1.09.

Which self-cleavage does the source give for UAACAGGGGGCCACAGCGGAAGCGUUCACGUCGCAGCCCCUGACAGAUUCUGGUGAAUCUGCGAAUUCUGCUGUAUAUCCC here?
Its self-cleavage is 1.03.

Which self-cleavage does the source give for UAACAGGGGGCCACAGCGGAAGCGUUCACGCCGCAGCCCCUGUCAGAUUCAGGUGAUUCUGCGUAUUCUGCUGUAUAUCUC here?
Its self-cleavage is 0.14.

With UAACAGGGGGCCACAGCGGAAGCGUUCACGUCGCAGCCCCCGUCAGAUUCCGGUGAAUCUGCGAACUCUGCUGUAUAUCUC as the variant, how does the self-cleavage read?
Its self-cleavage is 0.43.

Which self-cleavage does the source give for UAACAGGGGGCCACAGCGGAAGCGUUCACGUCGCAGCCCCCGUCAGAUUCUGGUGAAUCUGCGAUUUCUGCUGUAUAUCUC here?
Its self-cleavage is 0.18.

For UAACAGGGGGCCACAGCGGAAGCGUUCACGUCGCAGCCCCUGACAGAUUCUGGUGAAUCUGCGUAUUCUGCUGCAUAUCCC, which self-cleavage is on record?
Its self-cleavage is 0.43.

Which self-cleavage does the source give for UAACAGGGGGCCACAGCGGAAGCGUUCACGUCGCAGCCCCCGUCAGUUUCGGGUGAAUCUGCGAAUUCCGCUGUACAUCUC here?
Its self-cleavage is 0.2.

Which self-cleavage does the source give for UAACAGGGGGCCACAGCGGAAGCGUUCACGUCGCAGCCCCAGUCAGAUCCUGGUGAACCUGCGAAUUCUGCUGUAUAUCUC here?
The self-cleavage was 0.31.

With UAACAGGGGGCCACAGCGGAAGCGUUCACGCCGCAGCCCCAGUCGGAUUCUGGCGAAUCUGCGAAUUCUGCUGUUCAUCUC as the variant, how does the self-cleavage read?
Its self-cleavage is 0.16.

For UAACAGGGGGCCACAGCGGAAGCGUUCACGUCGCAGCCCCCGUCAGAUUCCGGUGAAUCUGCGAAUUCUGCUGUAUAUCUC, which self-cleavage is on record?
Its self-cleavage is 0.67.
